Assay results published in PubChem BioAssay AID686970 (National Center for Advancing Translational Sciences (NCATS), 2013).
About 6,000 (1.7%) of roughly 360,000 compounds were called active. Inconclusive means that the source gave no clear call. Such entries were picked first, then a sample of the others. The call rests on the fitted dose curve; in most records, active means well fitted cell-killing curve with a large enough effect; inconclusive means small, poorly fitted or top-dose-only effect, or effect the other way; inactive means flat fitted curve, though single readings scatter. No potency is given beside an inconclusive call; the fits are too rough.

Experiment: qHTS for induction of synthetic lethality in tumor cells producing 2HG: qHTS for the HT-1080-NT fibrosarcoma cell line;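 further: NT is the 2HG producing partner of a matched IDH1 knockdown line; nearly all actives have a fitted effect of over 55% in size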;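 on activity, negative = less viability: 0% = DMSO-treated cells and -100% = media-only wells without cells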
Conditions: HT-1080-NT fibrosarcoma viability, CellTiter-Glo ATP luminescence, 48 h; activity, negative = less viability: at 46.1 µM (top of the series) unless noted
Method in brief: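 A 48-hour cytotoxicity screen used HT-1080-NT cells plated 2 hours before compound delivery. ATP-based CellTiter-Glo luminescence measured viability, normalized to DMSO and no-cell controls.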
Potency means the concentration at half of the fitted maximal effect; tags describe the fitted curve by direction and shape.

SMILES	Potency	activity, negative = less viability
Oc1cccc(/C=C/c2ccc3cccc(O)c3n2)c1	active: 32.6 µM	–
COC(=O)C(c1ccccc1)C(CC(=O)c1ccccc1)c1ccccc1 (configuration not stated)	–	inactive: -1.83%
CC1=CC(C)(C)Nc2ccc(OC(=O)CN3C(=O)CCC3=O)cc21	inconclusive [cytotoxic, partial curve, poor fit]	–
Cc1cc(C(C)(C)C)cc(C)c1CCNC(=O)c1c(C)noc1C	inconclusive [cytotoxic, partial curve]	–
OCCN(CCO)CC(O)COCCC12CC3CC(CC(C3)C1)C2 (configuration not stated)	inconclusive [cytotoxic, single point]	–
CCN(c1ccccc1)S(=O)(=O)c1ccc(Oc2ccccc2)c(N)c1	inconclusive [cytotoxic, single point]	–
CCN(C(=O)Cc1ccccc1OC)c1nnc(-c2ccncc2)s1	inconclusive [cytotoxic, single point]	–
Cc1ccnc(N2C(=O)c3ccccc3C2O)c1 (configuration not stated)	inconclusive [cytotoxic, partial curve]	–
COc1ccc(CN2C(=O)CN(S(C)(=O)=O)CC2(C)C(=O)Nc2c(C)cccc2C)cc1 (configuration not stated)	–	inactive: 7.53%
COc1ccc(OC)c(NC(=O)COc2coc(CN3CCCc4ccccc43)cc2=O)c1	–	inactive: -15.6%
Cc1sc2ccccc2c1CNC[C@H]1O[C@@H](n2ccc(=O)[nH]c2=O)[C@H](O)[C@@H]1O	–	inactive: 21.8%
CN(C)CC1CCCCC1C1(O)c2ccccc2CSc2sccc21 (configuration not stated)	active: 17.8 µM	–
Cn1c(SCC(=O)Nc2ccc3c(c2)OCCO3)nnc1-c1ccco1	inconclusive [rising, partial curve]	–
CCc1ccc(S(=O)(=O)NCc2ccc(C(=O)NCCN(Cc3ccccc3)C(C)C)cc2)cc1	inconclusive [cytotoxic, single point]	–
N#CC1=C(N)Oc2c(sc3ccccc23)C1c1ccco1 (configuration not stated)	inconclusive [cytotoxic, single point]	–
COc1ccc(C(C)=O)cc1CSc1nnc(Nc2ccccc2C)s1	inconclusive [cytotoxic, single point]	–
CC(C)OC(=O)c1ccc(NCc2cc(O)ccc2O)cc1Cl	active: 20.6 µM	–
COC(=O)c1ccc(COc2ccccc2/C=C(\C#N)C(=O)Nc2c(C)cc(C)cc2C)cc1	active: 9.2 µM	–
CNS(=O)(=O)c1cnccc1N1CCN(c2cccc(C(F)(F)F)c2)CC1	–	inactive: -0.105%
CN(C[C@H](Cc1ccccc1)N(C[C@H](CC1CCCCC1)N(CCc1ccccc1)N=O)N=O)N=O	–	inactive: 18.3%
CCc1nc(N2CCC(C)CC2)c2oc3ccccc3c2n1	inconclusive [cytotoxic, single point]	–
Cc1ccc(Cn2nnc3c(=O)n(CC(=O)NCc4ccc5c(c4)OCO5)cnc32)cc1	inconclusive [cytotoxic, single point]	–
CC(C)c1ccc(OCC(=O)N(Cc2ccccc2)c2ccccn2)cc1	–	inactive: 1.43%
CC(=O)N1c2ccccc2N(Cc2ccc(C)cc2C)C(=O)C1(C)C	inconclusive [cytotoxic, partial curve]	–

SMILES	Potency	activity, negative = less viability
C=CCOC(=O)c1sc(NC(=O)c2ccc(OC)cc2)nc1C	inconclusive [cytotoxic, partial curve]	–
NC(Cc1c[nH]c2ccccc12)C(=O)NCc1ccccc1 (configuration not stated)	–	inactive: -0.161%
COc1ccc(-n2nc(C(=O)NCC(=O)Nc3ccccn3)c3ccccc3c2=O)cc1	inconclusive [cytotoxic, single point]	–
COC(=O)C1=CN(CCOC23CC4CC(CC(C4)C2)C3)C=C(C(=O)OC)C1c1ccsc1	inconclusive [cytotoxic, single point]	–
Oc1ccc(-n2nnnc2SCc2c(F)cccc2Cl)cc1	inconclusive [cytotoxic, single point]	–
COc1ccccc1-c1cc(C(F)(F)F)nc(S(=O)(=O)CCCC(=O)Nc2cc(C)on2)n1	active: 9.2 µM	–
CC1CCCCC1NC(=O)C1CCC(CNc2c(N3CCCCC3)c(=O)c2=O)CC1 (configuration not stated)	inconclusive [rising, single point]	–
CCNC(=O)C1(C)CCCN1C(=O)c1ccc(F)c(Cl)c1 (configuration not stated)	inconclusive [rising, partial curve, poor fit]	–
CN1CCN(c2ccc([N+](=O)[O-])cc2NC(=O)c2ccccc2Cl)CC1	–	inactive: -2.2% [at 9.24 µM]
Cc1nn(C)cc1NC(=O)CCSc1nc(-c2ccco2)cc(C(F)(F)F)n1	–	inactive: -4.6%
O=C(Nc1ccccc1)N(CCCN1CCOCC1)Cc1ccccc1F	–	inactive: 5.95%
O=C(O)c1cccc2c1C(=O)c1ccc(N3CCCCC3)cc1S2(=O)=O	–	inactive: 2.55%
CCN1CCCC1CNc1ncnc2c1[nH]c1ccc(Cl)cc12 (configuration not stated)	active: 14.6 µM	–
COc1ccc(C(C#N)=Cc2cccc(OC)c2OC)cc1	–	inactive: -8.18%
CS(=O)(=O)c1ccc(-c2cccc(NC(=O)COc3ccc(Cl)cc3)c2)nn1	–	inactive: -26.1%
O=C(CNc1ccccc1)N/N=C/c1c(O)ccc2ccccc12	active: 10.3 µM	–
CCC(=O)Nc1ccc(/C=C(\C(C)=O)C(=O)c2ccccc2)cc1	active: 18.4 µM	–
CNC(=O)c1cc(Oc2ccc(NC(=O)Nc3ccc(Cl)c(C(F)(F)F)c3)cc2)ccn1	inconclusive [cytotoxic, single point]	–
CNc1ncnc2c1ncn2[C@H]1CN(Cc2ccc(Cl)cc2)C[C@@H](CO)O1	inconclusive [rising, single point]	–
CSc1sc(C)cc1C1C(C#N)=C(N)N(c2cccnc2)C2=C1C(=O)CC(C)(C)C2 (configuration not stated)	–	inconclusive: 10.8%
COc1cc(C(=O)NCc2cccnc2)ccc1OCC(=O)Nc1cccc(C(F)(F)F)c1	inconclusive [cytotoxic, single point]	–
c1csc(CNc2nc(NCC3CCCCC3)c3sccc3n2)c1	inconclusive [cytotoxic, single point]	–
O=C(NCC1CCCO1)c1ccc2c(=O)n(CC3CCCO3)c(SCC(=O)N3CCCC3)nc2c1 (configuration not stated)	–	inactive: -0.0323%
